In the supplement of paper PMC3334620:
Over roughly 33,000 sequences, “E-score (-0.5 to 0.5)” has its median near -0.011; the highest 2% begin near 0.28. Some of the results follow.

What follows are sequences tested against T1, Gcr1 (UniProt P07261) (assay: PBM E-score (8-mer binding enrichment) (E-score (-0.5 to 0.5)); higher = stronger / more preferred TF binding; most listed sequences are background and not binding sites). Details: protein concentration: 100 nM; construct: GST-full length.
T1 sequence: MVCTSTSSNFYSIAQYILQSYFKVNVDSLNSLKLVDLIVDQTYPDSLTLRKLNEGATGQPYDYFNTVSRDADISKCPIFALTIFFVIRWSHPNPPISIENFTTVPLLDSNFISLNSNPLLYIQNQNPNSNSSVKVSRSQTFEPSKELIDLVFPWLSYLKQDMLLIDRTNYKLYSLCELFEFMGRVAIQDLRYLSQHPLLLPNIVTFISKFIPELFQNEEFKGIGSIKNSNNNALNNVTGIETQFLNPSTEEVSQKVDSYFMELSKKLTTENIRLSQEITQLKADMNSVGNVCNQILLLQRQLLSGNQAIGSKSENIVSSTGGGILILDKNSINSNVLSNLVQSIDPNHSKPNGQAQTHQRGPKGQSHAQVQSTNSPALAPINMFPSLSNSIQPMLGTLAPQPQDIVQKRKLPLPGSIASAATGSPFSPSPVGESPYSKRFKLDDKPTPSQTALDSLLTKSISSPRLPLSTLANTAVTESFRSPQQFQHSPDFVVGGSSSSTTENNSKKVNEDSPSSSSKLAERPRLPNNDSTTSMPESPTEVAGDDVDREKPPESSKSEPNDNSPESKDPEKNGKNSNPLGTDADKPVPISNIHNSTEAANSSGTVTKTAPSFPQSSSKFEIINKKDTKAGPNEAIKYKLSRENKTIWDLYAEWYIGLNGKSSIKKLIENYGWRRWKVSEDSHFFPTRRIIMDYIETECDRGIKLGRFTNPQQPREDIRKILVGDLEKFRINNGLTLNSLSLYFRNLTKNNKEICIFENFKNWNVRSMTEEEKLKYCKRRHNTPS
Protocol: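 Universal 'all 10-mer' protein binding microarrays (Agilent AMADID 015681) probed with GST-tagged S. cerevisiae TFs (full-length or DBD) made by in vitro transcription/translation (PURExpress), about 100-200 nM. Bound TF was detected with fluorescent anti-GST. Each ungapped 8-mer (which stands for itself and its reverse complement) is scored by the PBM enrichment score (E-score), a modified Wilcoxon-Mann-Whitney statistic from -0.5 to +0.5, computed with the Universal PBM Analysis Suite. Scale: above 0.35 generally sequence-specific binding.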

Sequence | PBM E-score
CTTCAATA | 0.112
TGGCGAAA | -0.121
TAGCACAA | -0.0654
GTGATAAA | 0.0219
GCGTCCAA | 0.372
TACGCTCA | -0.136
CGGAGAAC | -0.124
CAGGGAAG | -0.00506
TCCGAAGA | -0.029
CAATACCC | 0.00575
ACCGACGG | -0.107
CGCAATAG | 0.104
CGATGGCA | -0.0116
AACGCATA | -0.154
CTGTGTTC | -0.0735
CAGAAAGG | -0.02
TTACGCAA | 0.0651
AGTCACAG | -0.118
CCCCCGCA | -0.00922
GTACAGTA | -0.0272
AACAGTGA | -0.249
CTACGTTA | -0.122
ACCGCCGG | -0.192
GAATTAAA | 0.0595
GTTGTTCA | -0.0476

Sequence | PBM E-score
TAGTACTA | 0.153
AGCACTTA | 0.175
ATTAGGTC | 0.149
ACGGTGAA | -0.0089
GTCGTCAC | -0.0438
GCCTGTGA | 0.0496
CCTAAACC | 0.19
CTAGATCC | 0.137
CCCAACAA | 0.00509
AGCATGCT | -0.102
CGACACAG | -0.00213
GGTCTCAA | -0.0976
ATTATTAG | 0.208
CTAAACCC | -0.131
GCTCTGCA | -0.118
AAGCTTAA | -0.0597
CACCACGG | -0.0416
AACTACCA | 0.152
GGTCGTCA | 0.0635
CACATACA | 0.123
CAAACTTA | 0.0945
ATTTTGGG | 0.274
TCCAAGAA | 0.0996
AAGCTAAG | -0.0175
CCACGGAG | -0.0337

Sequence | PBM E-score
CACCCAGG | -0.0332
TTCTCAAA | 0.147
CCAGTTTC | 0.0973
GAGCTGAA | 0.0195
ATATATTG | -0.0254
CTATTTAC | 0.12
ATTGGGCG | 0.134
AATCACGC | -0.0463
ACCGAGTA | -0.275
GGCTTATA | 0.183
TCCCGCCA | -0.0715
CTGGTATA | -0.0854
TATTGCGA | 0.0177
ATACCTAT | 0.137
ACTTCTCC | -0.0031
ATAGAGGG | 0.137
CGTAGGTC | -0.231
AACATCAA | 0.0502
GCGAGTGA | -0.218
TGGTAAAA | -0.011
ACTAAGAT | 0.0547
CAATCCGC | -0.0651
CGAGAGAC | -0.0123
CGTCTCAC | -0.157
AATGCAAG | 0.0306

Sequence | PBM E-score
CATAGACA | -0.0992
ATTTGTAC | -0.194
GAGTCTGA | 0.0244
TCATGTAA | -0.0502
AAATGCGT | 0.145
AGCGGCCC | -0.07
ACTACAGT | -0.15
ATGTTGCC | 0.0602
GCGTTCAC | 0.00885
CAAGCCTG | -0.203
ATGCTTAA | 0.0702
CATCACGC | 0.0239
AAGCTACA | 0.0686
CATTCCTC | 0.0499
GACCCTTA | -0.26
AAGATTAA | 0.233
GAAACCTA | 0.0381
ACTAACAT | 0.00716
ACCAAACG | 0.093
ACTCCAGT | 0.0907
GAGTTTAC | -0.0188
CTACTGTC | -0.0659
GCCCTAAA | 0.13
ACTCTTCG | -0.23
GCCCCTTA | -0.0366

Sequence | PBM E-score
GCTAACTA | 0.0833
AACGGCGT | -0.0331
CGACTTAG | -0.118
AGTACGAG | -0.158
GCTCTCGA | -0.123
ACATAGGA | 0.239
ACTAGAGC | -0.124
CAGCCGCC | 0.124
AATATAGC | 0.113
AGAAGAAA | 0.0466
GCTAGCAA | 0.0296
CGCGGGGC | 0.151
GAGTTCGA | 0.102
AATCGGGG | 0.103
ATATTACC | 0.0368
AATTATCG | 0.163
TGCGCACA | 0.0348
TACTAGTA | 0.24
GAGGTCCC | -0.0211
ATTTGAAG | 0.229
GACCTACC | -0.214
ATACCAGC | 0.00966
AGGTTGAT | -0.128
ATATCGAC | -0.0467
CGTATTCA | 0.02

Sequence | PBM E-score
CGATTACG | -0.235
AGTTTGTA | 0.0172
CGATCGGA | 0.0565
GAGACCAC | 0.00125
CAAGAGTA | -0.084
CCGACTCA | -0.0878
AAAGCGGG | -0.0519
GCAACGAC | -0.189
CTCATGTA | 0.017
AATCGAAA | -0.0237
AGCAGATG | -0.0362
CCATTTCA | 0.0258
CGCGACTC | -0.132
TATAGAGA | -0.121
CGTGACAC | -0.116
CTCACCCA | -0.012
CCGGGTAC | 0.0433
CGGGCCCA | 0.0644
AGGACCCC | 0.171
CCGATTCA | -0.00017
CAACGACC | 0.0148
GTGGGAAA | -0.115
ATTAGACC | -0.13
CCGCAAAA | 0.0921
AGCTCGTC | -0.0532

Sequence | PBM E-score
TTATGAAA | 0.206
GCTGCAAA | 0.104
GAATTAGA | 0.2
ACACTTTG | -0.0695
ACAACTTC | 0.192
CGGCCTCA | -0.0193
CAGAGACA | 0.0093
AACAACTT | 0.0987
GCCACGGA | -0.0878
CTCCCATC | -0.121
ACACCTCT | -0.0109
ATTAGTAG | 0.261
GACTATCC | -0.257
CCGCGTCA | 0.0347
AGACCCGA | -0.024
AGCCTAGC | -0.113
AACCCTCT | 0.00103
CCGATGCC | 0.00052
ATTTGCGG | 0.0976
TAGCGAGA | -0.167
CAATCCTG | 0.00457
CACTCCGG | 0.11
